# The full ranking holds about 1,800 sequences; the median of “median log2 fold change of GCK-ALFA target abundance (FLAG IP / Myc IP barcode read proportion)” is about 0.14, and the lowest 2% start at about -0.84. This is one part of the list.
# B1: traf2_out_16_104_1423 (protein)
# chain: SEEKQKAFDKAIKELEEIAERAQRLANRAYELYLKASPEKKTELSDLLVELSELKREALLAAQEAKELQKNGGDLEEVQKKLEELRKRLEELEKRLKELE
# B2: traf2_out_6_156_2375 (protein)
# chain: MLEKILEEAKKKIEELIKELAKASEEKKIAYISRIAGAVYRALQRMREAGASVEEIKKAVEELKKVAEEKAKEAGLDQDTIDLLLASIDAVGKVALEEAK
# B3: traf2_out_15_180_1324 (protein)
# chain: MTEEELEKRIELANEVADKVDDKLKALLAANPGLSEEEKAALKALARSVTTLYMNGEYAEAEAALAALEARLSPKAAAVAKELAAFAKKLVEEAKEELAK
# B4: traf2_out_6_156_2391 (protein)
# chain: MLEAIEAETLEKLAELIEEMSKASEEKKIFYINRIAGVVYRALQRARDAGASLEELRAFAERVRAFLKEELDKYGIDEDTKNLILSSINAVFDEALAAAE
# B5: traf2_out_18_3_1942 (protein)
# chain: KEEKLKEISEKIDEIIDEVTARAEAELARLLAEHPEHAAEAERLRADLAAGAGPFGILEELAELWRAAGDEERAAAVEEFLRRKRRELQKLVDEYEKLLK
# B6: traf2_out_6_156_2434 (protein)
# chain: SIEEILKEAKEKIKELIKELAKAPESKKISYINKIAGTFYNALRKLKEAGASIEEIKKVNEELIKVAEEEAKKAGLDEDTINLLLASLNAVGIVAIESAE
# B7: traf2_out_17_178_1712 (protein)
# chain: SKEEARKEISAATDEMIDLAEAAATRLLEIARKEGSLSPEELAELERARRLGSARTTLALMERAIPKSKSAEEVQAILDEFRKRYAELSKKIAEALEKYE
# B8: traf2_out_17_60_1761 (protein)
# chain: GPEEEKEELAKRAEEKIKEARELVEEVREKLAAGTLTADEAMDYLVELSEKRRELEALREELKAKGPEFEPLVERLEETIEEIRRTMNEVGKKLLELLAA
# B9: traf2_out_20_3_2226 (protein)
# chain: EELEKELEKLLEEALKQLKEIAKVADPETKKVVEKMIKKLEEAKELDPVDRLVVLSEVRRQLLLLAQKAKAAGNKELAAKLEKAAELLQRAMQVEYKIIE
# B10: traf2_out_5_63_2355 (protein)
# chain: SEREELTALAKEADKLALELLEAAKKGDEEEVEKLLKEAAEDEELARTVLGILKGYAKYYELLGDKPEEAKIAKELAKRLEELMKEKKEEEARRKAEEEA
# B11: traf2_out_13_95_1168 (protein)
# chain: SEEKTEKERKIASEAFDRREAIARDFAARVRALIDDPEAAALMDEVVRRMNRFTLEAAAARLIAAHPEHAAEIRALRDEALARMREIDRETTKKLNEIEE
# B12: traf2_out_20_3_2184 (protein)
# chain: SELEKQLEEELEKALALLKEAAKLADKETAAKLDALAKRLKASRELSPEDQLVELSEIRREVLRLAEEAKKEGKEELAKVLEKAAEALNRAMNLVYKIIE
# B13: traf2_out_13_95_1135 (protein)
# chain: SKETAEKIMEVADEMLDKVTAVLEKLKAKAEKAGKLVEEIEEVLHLARYQSVNLAIHKLRELSKEHPEFKEELDAAIEEIEAIRREAGKKVAEILKKAKE
# B14: traf2_out_13_95_1132 (protein)
# chain: SAETAKKIMEIADKMLDEILAILEELLKKAEAAGVGVEEIQKAIHLAEHHSVNEAIHLLRELAKKHPEFKAELEAAIAKIEAIREKAGREVAKILKEAAE
# B15: traf2_out_6_166_2461 (protein)
# chain: SEELRKRIKEIIEELSKYPVDVILEAFEEVAKEVDPESARIARQLASAVRQAQKLGLDVAVALSATVDGLIALGVPEEKLLELLEKILKKAKEIAAEREA
# B16: traf2_out_9_17_2609 (protein)
# chain: SAAEERLRERLLEAIEEVLKELVEKGYITEEQAEEILKKVRELIERGASTDEIIAEFLGMVASILLTKSNLSLPEANKIVGEAYRKLRAALAAIEAELAA
# B17: traf2_out_11_169_873 (protein)
# chain: EEAEKNRKINDKALELNDKAKEELKEFALKLAKEKGLDVEEIKKIFEKNKNKSLSYVAAELIRYFKEKGEEEAAEEILKKYEELKEKINKEMSKFLKELE
# B18: traf2_out_17_178_1733 (protein)
# chain: SREEILKKISEYADEMLDVTKKAVDELKAIAEKEGILTPELKARLDEVASTSNLYAFKEVAEELIKLSSNKEEVEKLLKETVKKLTELRKKIQEAVDELE
# B19: traf2_out_17_178_1705 (protein)
# chain: SKEEARKKISEATDKMIDLAQEAAERLLEIAEREGSLSPEELAELRRARRLGSARTTLALMRRAIPRSRSAEEVRRLVEEFEKEYRELSKIIAEELKKYE
# B20: traf2_out_8_15_2551 (protein)
# chain: SIEEAALKDIAKLESLSDGDKESLINTLLGMAKGELRLAKIYAEEGRKEEALNTLKAAKIYADEALKLAKEINSPNLEEIKKEVEKIHKEIEELKKKIKA
# B21: traf2_out_20_3_2146 (protein)
# chain: EELEKKLEEEKERALKLLEEAAKLADKETAAKLKALAKRLKESEKLSYSDQLVVVSEVRREVLLLAQEAEAAGKEELAKLLEEAADELNRAMNLLYKIIE
# B22: traf2_out_20_38_2030 (protein)
# chain: SAEEEEERRLEELIEVANEAYDKYEEEFKKLQAEGKSVEEMAELTKEKVRELLEKAGLEEEAKILIEDIDRALSSPNAVRLLIRILARAEALVYQKKINK
# B23: traf2_out_11_155_759 (protein)
# chain: STLRAKANAINDAAMAIADEIDAFIDEVIAAVEKEDPAVAAEIRAALAAHRDASARSRALIVADVLKAAGLDDRAAAVEKKLEEAQKRLNEEVKKIEEAA
# B24: traf2_out_1_27_986 (protein)
# chain: SEAEFTALVKEASRKIAAASPEEAIEIARETLRTLHELGNPDIGVAAVTLVTSVKTREDAEALIEAIVETLRELGVPEEEIERVRRQMETAVRLLFEALA
# B25: traf2_out_6_169_2501 (protein)
# chain: AEREELERELARHRARAEELFNIAKTIYKQAEENDDKSKLPTRLEALETIRNALTRQYDLAIAAAEALGDEELAAELREERERRLKEIDEYIKKLKEKMK
# B26: traf2_out_11_155_699 (protein)
# chain: EKKRELANELVDKMMEIEDEAKARLDAIAAEAAAAHPEHAAEIEAARAAAARFSATTYAGILAALFRRLGLDEYAARVEALREEAQKRKNEVYKEIEAKM
# B27: traf2_out_17_162_1543 (protein)
# chain: AALEARLAALEARLERLEALRRELEALVPKLPELSKEELTDLLVEASEARREALRLAEEIAALKDEIGEERATALRERALEVAEELQRIANLIYKELEKK
# B28: traf2_out_17_178_1748 (protein)
# chain: NEEELKKIINEKNNEIADIAEKLAEEILKLAKEDPSISPETLALIEEARRNGSHNTAVALFLEASKNEETKKKVEELHKKASEEMNKLAKEREEAIEKYK
# B29: traf2_out_17_162_1524 (protein)
# chain: SATEARAAALEAELAALEKELAALKAQLPKLPEMSKEELSDLLVKASEARRRALALAERIRELAAELGEERAQALRDRAEAIAAEFQKIAQAAYKEYEKK
# Biological target: T1, TRAF2, Q12933
# T1 chain: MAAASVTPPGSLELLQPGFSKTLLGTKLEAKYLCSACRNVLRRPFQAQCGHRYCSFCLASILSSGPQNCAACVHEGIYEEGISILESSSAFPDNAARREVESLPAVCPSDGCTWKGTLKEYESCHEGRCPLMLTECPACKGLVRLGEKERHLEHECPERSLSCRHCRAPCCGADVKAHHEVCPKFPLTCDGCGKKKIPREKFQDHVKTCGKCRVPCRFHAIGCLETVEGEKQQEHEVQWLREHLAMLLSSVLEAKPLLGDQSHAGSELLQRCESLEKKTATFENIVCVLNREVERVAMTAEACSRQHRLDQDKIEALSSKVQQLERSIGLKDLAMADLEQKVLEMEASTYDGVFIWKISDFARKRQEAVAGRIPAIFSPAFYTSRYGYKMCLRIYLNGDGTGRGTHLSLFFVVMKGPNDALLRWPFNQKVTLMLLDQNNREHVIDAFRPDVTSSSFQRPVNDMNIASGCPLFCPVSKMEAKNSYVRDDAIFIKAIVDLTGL
# Test: median log2 fold change of GCK-ALFA target abundance (FLAG IP / Myc IP barcode read proportion) (log2 ratio); each designed protein is fused to an ALFA-tag nanobody in HEK293 cells to bring the named protein to FLAG-tagged glucokinase (GCK); Myc marks an untargeted standard; higher = target protein stabilised (more abundant)
# Conditions: target protein: 3xFLAG-MCP-GCK-ALFA reporter; HEK293 landing pad (RPLP)
# Summary of the method: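 An ALFA-nanobody-fused binder library was recombined into HEK293 landing-pad cells and induced with 2 μg mL^−1 doxycycline. Cells were transfected with a plasmid expressing a FLAG-tagged target and a Myc-tagged standard. After 48 h, lysates underwent anti-FLAG and anti-Myc immunoprecipitation, and circular RNA barcodes were reverse transcribed, amplified and sequenced. Target abundance is the per-binder median log2 ratio of FLAG to Myc barcode read proportions. Barcodes needed ≥10^−7 proportion in both replicates, binders ≥3 barcodes per replicate, and a 10^−6 pseudocount was added; the two replicates were pooled.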
row,Binder,median log2 fold change
1,B1,0.167
2,B2,0.151
3,B3,0.187
4,B4,0.185
5,B5,-0.0278
6,B6,0.163
7,B7,0.217
8,B8,-0.0492
9,B9,0.133
10,B10,0.382
11,B11,0.228
12,B12,0.0556
13,B13,-0.36
14,B14,-0.315
15,B15,0.127
16,B16,0.0709
17,B17,-0.161
18,B18,0.195
19,B19,-0.521
20,B20,0.246
21,B21,0.34
22,B22,0.153
23,B23,0.225
24,B24,0.297
25,B25,0.00609
26,B26,-0.13
27,B27,0.311
28,B28,0.486
29,B29,0.0763

# — the supplement of paper PMC12632987
